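Tested at 5 concentrations; 48 h exposure; 96-well plates; endpoints linearly interpolated, else capped at highest concentration. GI50 = concentration required for 50% inhibition of growth.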 Activity calls are given as the source filed them. Cut-off read from the data, not from the text of the source: active = GI50 up to about 1.1 µM and inactive = higher.
These compounds were tested on NCI-H322M (assay: NCI tumour cell line growth inhibition, 48 h).
With `O=C(Nc1cccc(Cl)c1)Nn1cnnc1` the GI50 was inactive: > 100 µM. `[O-][N+](CCO)(CCO)c1ncnc2[nH]cnc12` was tested, and the GI50 was inactive: > 100 µM. `C[C@@H]1C[C@@]2(O[C@@H]2C)C(=O)O[C@@H]2CCN3CC=C(COC(=O)[C@]1(C)O)[C@H]23` was tested, and the GI50 was inactive: > 100 µM. With `Cc1ccc(NS(=O)(=O)c2cc(C(C)(C)C)ccc2OCCOCCOCCOc2ccc(C(C)(C)C)cc2S(=O)(=O)Nc2ccc(C)cc2)cc1` the GI50 was inactive: > 100 µM. With `C=CCC1(OC(C)=O)C2OC(=O)C1(O)OCC2O` (configuration not stated) the GI50 was inactive: > 100 µM. For `O=S(=O)(c1ccccc1)C1CN2OC1(S(=O)(=O)c1ccccc1)CC21CCCCC1` (configuration not stated), the GI50 was inactive: > 100 µM. In the case of `Cc1ccc([N+](=O)[O-])cc1S(=O)(=O)Nc1ccc(C2=NOC(c3ccccc3O)C2)cc1` (configuration not stated), the GI50 is reported as inactive: 28.3 µM. For `COc1cc2c(cc1O)C1Cc3ccc(OC)c(O)c3C(C2)N1C` (configuration not stated), the GI50 was inactive: > 100 µM. In the case of `CN1c2ccccc2S(=O)(=O)n2c(CCc3ccccc3)nnc21`, the GI50 is reported as inactive: > 100 µM. In the case of `N/N=C1/C(=O)N(c2ccc(Cl)cc2)C(=O)C(=O)C1c1nc2ccccc2s1` (configuration not stated), the GI50 is reported as inactive: > 100 µM. `O=S(=O)(/C=C/C=C/[S+]([O-])c1ccccc1)c1ccccc1` (configuration not stated) was tested, and the GI50 was inactive: > 10 µM. `Cn1c(=O)c2nc(-c3ccc(Cl)cc3)oc2n(C)c1=O` was tested, and the GI50 was inactive: > 100 µM. For `CC(=O)Oc1c(C)cc2c(c1C)C(C)CN2C(C)=O` (configuration not stated), the GI50 was inactive: > 100 µM. `CCOC(=O)C1(C)CCC(C(=O)OC)C1=O` (configuration not stated) was tested, and the GI50 was inactive: > 100 µM. In the case of `CC(C(=O)c1ccc(Cl)cc1)/C(=N/NC(=O)NN)C(=O)Nc1cccc(C(F)(F)F)c1` (configuration not stated), the GI50 is reported as inactive: > 100 µM. `CN(C)CC1CCC/C(=C\c2ccc(OC(=O)/C=C/c3ccc(Cl)cc3)cc2)C1=O` (configuration not stated) was tested, and the GI50 was inactive: 17.5 µM. In the case of `Cc1sc(Nc2ccc(Nc3nc(-c4ccccc4)c(C)s3)cc2)nc1-c1ccccc1`, the GI50 is reported as inactive: > 100 µM. In the case of `NC(=O)/C=C/c1c[nH]c2nccnc12`, the GI50 is reported as inactive: 2.01 µM. For `CCOC(=O)c1ccc(Nc2nc3ccccc3nc2C(=O)OCC)cc1`, the GI50 was inactive: > 100 µM. For `O=C1C=CC(=O)c2c1ccc1c3ccccc3n(Cc3ccccc3)c21`, the GI50 was inactive: > 100 µM. In the case of `CC(Cl)CN1c2ccccc2Sc2ccc(Cl)cc21` (configuration not stated), the GI50 is reported as inactive: > 10 µM. `COc1ccc2nc(NC(=O)/C(C#N)=C/c3ccccc3)sc2c1` was tested, and the GI50 was inactive: > 78.2 µM. For `CC1/C(=N\O)CC(c2ccccc2)N(C)C1c1ccccc1` (configuration not stated), the GI50 was inactive: > 100 µM. `CCOC(=O)Nn1c(C)nnc1CC#N` was tested, and the GI50 was inactive: > 100 µM. For `Cc1cc(C(C)(C)C)c(OCCCN2CCOCC2)c(C(C)(C)C)c1`, the GI50 was inactive: 18 µM. For `CCC/C(=N\NC(=S)N1CCN(c2ccccn2)CC1)c1ccccn1`, the GI50 was active: 0.00364 µM. With `COc1ccc(C2C3=C(COC3=O)Oc3cc4c(cc32)OCO4)c(OC)c1` (configuration not stated) the GI50 was inactive: 42.1 µM. For `CC1(C)O/C(=C\c2ccccc2)C(=O)/C(=C/c2ccccc2)O1`, the GI50 was inactive: > 100 µM. With `C[C@]12CC[C@H](O)CC1=CC[C@@H]1[C@@H]2CC[C@]2(C)C(=O)[C@@H](N3CCOCC3)C[C@@H]12` the GI50 was inactive: > 100 µM. In the case of `Nc1c(C(=O)c2ccc(Cl)cc2)[nH]c(Nc2ccc(Cl)cc2)c1C(=S)Nc1ccccc1`, the GI50 is reported as inactive: 14.4 µM. In the case of `CC(=O)Nc1nc2c(=O)c3ccccc3sc2s1`, the GI50 is reported as inactive: > 100 µM. For `CCOCCOc1ccc(OCCOCC)cc1`, the GI50 was inactive: > 59.7 µM. For `CC(C)(C)NC(=O)/C(=C\Sc1ccccc1)c1ccccc1`, the GI50 was inactive: > 100 µM. In the case of `O=C(O[C@H]1[C@@H](O)[C@H](n2cnc3c(Cl)ncnc32)O[C@@H]1COC(c1ccccc1)(c1ccccc1)c1ccccc1)c1ccccc1`, the GI50 is reported as inactive: 15.3 µM. In the case of `NC(=O)c1nnn(-c2ccccc2)c1O`, the GI50 is reported as inactive: > 100 µM. `c1ccc([P+](CCNCCNCC[P+](c2ccccc2)(c2ccccc2)c2ccccc2)(c2ccccc2)c2ccccc2)cc1` was tested, and the GI50 was inactive: > 100 µM. For `CCCOc1ccc(/C=C\c2cc(OC)c(OC)c(OC)c2)cc1`, the GI50 was inactive: 95.9 µM.
